Results published in PubChem BioAssay AID588453 (National Center for Advancing Translational Sciences (NCATS), 2011).
Screen size: about 390,000 compounds; about 4,000 (1%) were called active. Inconclusive means that the source gave no clear call. Such entries were picked first, then a sample of the others. Calls come from the whole dose curve; as a rule, active = well fitted inhibition curve with a large enough effect; inconclusive = small, poorly fitted or top-dose-only effect; inactive = no such curve, though single readings can be large or run the other way. Where the call is inconclusive, the potency comes from a doubtful curve fit.

What follows are compounds tested against Thioredoxin reductase 1, cytoplasmic (Rattus norvegicus) (UniProt O89049) (assay: qHTS Assay for Inhibitors of Mammalian Selenoprotein Thioredoxin Reductase 1 (TrxR1): qHTS). Details: recombinant rTrxR1, NADPH fluorescence consumption, selenite substrate; series mostly up to 114 µM.
In short: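 Rat TrxR1 (90 nM in the dispensed reagent) was pre-reduced with 400 uM NADPH for 5 min at room temperature, then incubated with compound for 15 min. After 400 uM selenite was added, NADPH fluorescence (Ex 340/Em 450 nm) was followed for 8 min.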
Note: nearly all actives have a fitted effect of over 65% in size.
Potency is the fitted concentration of half-maximal effect; tags give direction and shape of the fitted curve.

UniProt O89049, sequence (O89049 whole entry, looked up): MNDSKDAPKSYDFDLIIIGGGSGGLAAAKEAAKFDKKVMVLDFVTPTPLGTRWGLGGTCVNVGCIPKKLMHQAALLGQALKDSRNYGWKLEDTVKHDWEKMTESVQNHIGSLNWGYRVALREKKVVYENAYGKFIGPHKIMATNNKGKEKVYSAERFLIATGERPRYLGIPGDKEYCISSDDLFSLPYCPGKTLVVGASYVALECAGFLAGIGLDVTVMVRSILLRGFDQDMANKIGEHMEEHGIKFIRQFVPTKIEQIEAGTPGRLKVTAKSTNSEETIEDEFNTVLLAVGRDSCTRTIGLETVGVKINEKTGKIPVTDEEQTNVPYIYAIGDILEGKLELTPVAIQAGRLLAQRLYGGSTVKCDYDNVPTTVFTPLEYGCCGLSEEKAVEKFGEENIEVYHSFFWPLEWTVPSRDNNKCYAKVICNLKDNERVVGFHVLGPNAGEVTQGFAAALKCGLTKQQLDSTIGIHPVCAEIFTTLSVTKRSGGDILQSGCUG

SMILES | Potency
COc1cc(/C=N/N2C(=O)c3ccccc3NC2(C)c2cccc([N+](=O)[O-])c2)cc(Br)c1O (centres undefined) | inconclusive: 20 µM [inhibitor, full curve, poor fit]
Cc1ccc(CNC(=O)c2cn(C3CCCCC3)c(=O)c3c2c2ccccc2n3C)o1 | active: 3.98 µM
O=C(c1ccc(Br)c(S(=O)(=O)N2CCCCC2)c1)N1CCCCC1 | inactive
O=C(NCc1ccc2c(c1)OCO2)c1ccc(C2SCC(=O)N2Cc2ccco2)cc1 (centres undefined) | inconclusive: 28.2 µM [inhibitor, single point]
Cc1ccccc1CN1CCN(S(=O)(=O)c2ccc(Cl)s2)CC1 | inactive
C#CCOCCOCCOCCNc1nc(N2CCN(C(=O)[C@H]([C@@H](C)CC)n3cc(CCCN=C(N)N)nn3)CC2)nc(N2CCN(C(=O)[C@H](C)n3cc(CCCN=C(N)N)nn3)CC2)n1 | inconclusive: 35.5 µM [inhibitor, partial curve]
CCOC(=O)c1cccnc1SC(CC)C(=O)NCc1ccco1 (centres undefined) | inconclusive: 22.4 µM [inhibitor, partial curve]
CCOc1cc(CNCCc2ccc(S(N)(=O)=O)cc2)ccc1OCc1ccccc1 | inactive
COC(=O)C1=C(C)N(CCc2ccccc2)C(=O)C1(NS(=O)(=O)c1ccc(NC(C)=O)cc1)C(F)(F)F (centres undefined) | inconclusive: 79.4 µM [inhibitor, single point]
Cc1cc(C)nc(NN=C(c2ccccc2)c2ccccc2)n1 | inactive
NC(=O)C1(N2CCCCC2)CCN(C(=S)Nc2cc(F)cc(F)c2)CC1 | inconclusive: 79.4 µM [inhibitor, partial curve, poor fit]
O=C(CCl)N1CCN(S(=O)(=O)c2ccc3c(c2)OCCCO3)CC1 | inconclusive: 20 µM [inhibitor, full curve]
CC(NC(=O)c1ccc(F)cc1)c1ccccc1 (centres undefined) | inactive
CCCC1CCc2c(sc(N)c2C(N)=O)C1 (centres undefined) | inconclusive: 79.4 µM [inhibitor, partial curve, poor fit]
O=C(CCN1CCc2ccccc21)c1ccc2c(c1)OCCO2 | inconclusive: 10 µM [inhibitor, partial curve, poor fit]
CC1(C)CC(=O)C(=Cc2cn(-c3ccccc3)nc2-c2ccccc2)C(=O)C1 | inconclusive: 8.91 µM [inhibitor, partial curve, poor fit]
C=CCNC(=S)NNC(=O)C(CCCC)CC(C)O (centres undefined) | inactive
Cc1ccc(-n2nc(C)c(NC(=O)CCl)c2C)cc1C | inconclusive: 35.5 µM [inhibitor, partial curve]
Cc1c2cnn(-c3ccccc3)c(=O)c2c(C)n1CCCC(=O)N1CCN(C)CC1 | inconclusive: 35.5 µM [inhibitor, partial curve, poor fit]
O=C(c1ccc(Cl)c(S(=O)(=O)N2CCOCC2)c1)N(Cc1nnc(-c2ccccc2Cl)o1)C1CC1 | inconclusive: 22.4 µM [inhibitor, partial curve, poor fit]
COc1cccc(-n2c(SC)nnc2-c2c[nH]c3ccccc23)c1 | inactive
O=c1[nH]c2c(n(C3CCCCC3)c1=O)CCC2 | inconclusive: 70.8 µM [inhibitor, single point]
CCNc1oc(-c2ccccc2F)nc1S(=O)(=O)c1ccccc1 | inconclusive: 50.1 µM [inhibitor, single point]
CC(=O)/C=C/n1c(=S)oc2ccccc21 | active: 3.16 µM
O=C(N1CCOCC1)N1CCOCC1 | inactive

SMILES | Potency
Cc1ccc2cc(CN(c3ccccc3)S(=O)(=O)c3ccccc3)c(=O)[nH]c2c1 | inactive
COc1cc(/C=C/CN2CCN(CCC(C)C)C(CCO)C2)ccc1O (centres undefined) | inconclusive: 17.8 µM [inhibitor, partial curve, poor fit]
CCOC(=O)c1cn[nH]c1NC(=S)Nc1ccc(OC)cc1 | inconclusive: 56.2 µM [inhibitor, single point]
Cn1c(=O)n(C)c2cc(N3CCOCC3)c(NC(=O)c3ccccc3Br)cc21 | inactive
COc1cc(OC)c(OC)cc1/C=C/c1cc(C(=O)O)c2ccccc2n1 | inactive
COc1ccc(CNC(=O)CN2C(=O)CSc3ccc(S(=O)(=O)N4CCOCC4)cc32)c(OC)c1 | inactive
CCOc1ccc(-c2nnc(N3CCCCC3)c3ccccc23)cc1 | inconclusive: 89.1 µM [inhibitor, single point]
COc1cc(-c2n[nH]c(=S)n2-c2ccc(C)cc2)cc(OC)c1OC | inconclusive: 10 µM [inhibitor, partial curve, poor fit]
Cc1ccc2cc(CN(Cc3nnnn3Cc3ccco3)CC3CCCO3)c(=O)[nH]c2c1C (centres undefined) | active: 25.1 µM
O=S(=O)(c1ccc(F)cc1)N1CCN(c2nc(-c3cccs3)nc3ccccc23)CC1 | inactive
COc1ccc(S(=O)(=O)NCC(c2ccco2)S(=O)(=O)c2cccs2)cc1C (centres undefined) | inconclusive: 0.891 µM [inhibitor, full curve, poor fit]
CCNC(=S)NNC(=S)NCc1ccccc1 | inactive
O=C1c2ccccc2NC(c2ccc3c(c2)OCO3)N1Cc1ccco1 (centres undefined) | inactive
O=C1/C(=C/c2ccco2)Oc2c1ccc(O)c2CN1CCCCC1 | inconclusive: 12.6 µM [inhibitor, partial curve]
O=C(/C=C\NCC(=O)c1ccccc1)c1ccccc1 | inconclusive: 39.8 µM [inhibitor, single point]
CNc1ccc(C(=O)Oc2cc(O/N=[N+](\[O-])N(C)C)c([N+](=O)[O-])cc2[N+](=O)[O-])cc1 | active: 25.1 µM
CN(CCc1ccccc1)C(=O)c1ccc(NC(=O)Cc2ccc(NC(=O)C3CCCN(C(=O)C4CCC4)C3)cc2)cc1 (centres undefined) | inactive
CCCCOCCCNC(=O)N[C@@H](CC(C)C)C(=O)O | inactive
CN(C)S(=O)(=O)c1cc(NC(=O)COC(=O)/C=C/c2ccco2)ccc1Cl | active: 3.55 µM
CCOC(=O)c1sc(NC(=O)c2ccc(S(=O)(=O)N3CCOCC3)cc2)nc1-c1ccccc1 | inactive
O=[N+]([O-])c1ccc(/C=C/c2ccnc3ccccc23)cc1 | inconclusive: 56.2 µM [inhibitor, partial curve, poor fit]
O=C(Nc1ccccc1)Nc1ccc(C(=O)N2CCCC2)cc1 | inactive
CN(C)CCCN1c2ccccc2CCc2ccc(Cl)cc21 | inconclusive: 89.1 µM [inhibitor, single point]
O=C(O)c1cc2n(n1)C(C(F)(F)F)CC(C1CC1)N2 (centres undefined) | inactive
C=CCSc1[nH]c(=O)cc(C)c1C(N)=O | inconclusive: 89.1 µM [inhibitor, single point]

SMILES | Potency
O=c1cc(N2CCN(Cc3ccccc3)CC2)[nH]c(=O)n1-c1cccc(C(F)(F)F)c1 | inconclusive: 44.7 µM [inhibitor, partial curve]
O=C(O)CSc1cc(NS(=O)(=O)c2ccc(Br)cc2)c2ccccc2c1O | inconclusive: 22.4 µM [inhibitor, partial curve]
COc1ccc2nc(NC(=O)c3cccc(-c4cc5ccccc5oc4=O)c3)sc2c1 | inactive
COc1nc(C#N)nc(N2CCCCC2)n1 | inconclusive: 70.8 µM [inhibitor, partial curve, poor fit]
O=C(Cn1c(=O)n(-c2ccccc2Cl)c(=O)c2sc3ccccc3c21)NC1CCCCC1 | inactive
NC(=O)c1ccc(NC(=S)NCc2ccco2)cc1 | inconclusive: 20 µM [inhibitor, partial curve, poor fit]
COC(=O)c1ccc(NC(=O)CNCc2ccncc2)cc1 | inconclusive: 70.8 µM [inhibitor, single point]
CCCOC(=O)CSC1=C(C#N)C(c2ccccc2OCC)C(C#N)C(=O)N1 (centres undefined) | inactive
CC(Cc1ccccc1)=NNc1ccc([N+](=O)[O-])cc1[N+](=O)[O-] | inactive
CCCCCC(=O)Nc1cccc(C2=NOC3(C2)C[C@H](C(N)=O)N(C(=O)COc2ccc(Cl)cc2)C3)c1 (some centres undefined) | inactive
Cc1oc(/C=N/NS(=O)(=O)c2ccccc2)cc1Br | inconclusive: 0.282 µM [inhibitor, full curve, poor fit]
CN(C)c1ccc(/C=C2\C=Cc3ccccc32)cc1Cl | inactive
COc1cc(/C=N/NC(=O)c2cc(C)n(-c3ccc(F)cc3)c2C)cc(OC)c1O | inconclusive: 89.1 µM [inhibitor, partial curve, poor fit]
N#C/C(=C\c1ccccc1)c1ccccn1 | inactive
O=C(O)c1ccc(/C=N/n2c(C3CCCCC3)n[nH]c2=S)cc1 | inconclusive: 22.4 µM [inhibitor, single point]
Fc1cc(Br)ccc1NC(=S)Nc1cccnc1 | active: 50.1 µM
Cc1ccccc1C(=O)Nc1cc(-c2ccc(Cl)cc2)nn1-c1ccccc1 | inactive
CC(NC(=O)c1sc2cc([N+](=O)[O-])ccc2c1Cl)C(C)(C)C (centres undefined) | inconclusive: 8.91 µM [inhibitor, partial curve]
Cc1c(NC(=O)c2ccco2)cccc1-c1nc2cccnc2s1 | inconclusive: 22.4 µM [inhibitor, single point]
Cn1ncc2nc(SCC(=O)Nc3ccc(Br)cc3F)n(Cc3ccccc3)c(=O)c21 | inactive
CCCN(Cc1ccccc1)C(=S)Nc1cccc(C)c1C | inactive
COc1ccc2[nH]c(C(=O)Nc3cccc(C)n3)cc2c1 | inconclusive: 79.4 µM [inhibitor, partial curve, poor fit]
CCc1ccc(-c2nc3c(=O)n(C)c(=O)nc-3n(CC)n2)cc1 | inactive
c1ccc(CN(Cc2ccco2)C(c2ccncc2)c2nnnn2C2CCCC2)cc1 (centres undefined) | inconclusive: 35.5 µM [inhibitor, single point]
